Data from PMC4792956.
Like-named read-outs stand apart in the source and are kept apart here. These are yes or no findings as the source states them, for the method shown. In cells and extracts the contact can be indirect. Some binding calls cover weakened binding; strength is not graded here. For some of these results: Sequences can lack the tags named with a protein.

The chains behind the UniProt entries cited, without tags or fusion partners. Where a name states a change or a piece, a line headed by the entry shows the natural chain unless it says otherwise. A line that says so, or that is headed by a name, gives the form on record, which may keep a tag or linker. Residues count along the entry.
UniProt Q9V3Z6: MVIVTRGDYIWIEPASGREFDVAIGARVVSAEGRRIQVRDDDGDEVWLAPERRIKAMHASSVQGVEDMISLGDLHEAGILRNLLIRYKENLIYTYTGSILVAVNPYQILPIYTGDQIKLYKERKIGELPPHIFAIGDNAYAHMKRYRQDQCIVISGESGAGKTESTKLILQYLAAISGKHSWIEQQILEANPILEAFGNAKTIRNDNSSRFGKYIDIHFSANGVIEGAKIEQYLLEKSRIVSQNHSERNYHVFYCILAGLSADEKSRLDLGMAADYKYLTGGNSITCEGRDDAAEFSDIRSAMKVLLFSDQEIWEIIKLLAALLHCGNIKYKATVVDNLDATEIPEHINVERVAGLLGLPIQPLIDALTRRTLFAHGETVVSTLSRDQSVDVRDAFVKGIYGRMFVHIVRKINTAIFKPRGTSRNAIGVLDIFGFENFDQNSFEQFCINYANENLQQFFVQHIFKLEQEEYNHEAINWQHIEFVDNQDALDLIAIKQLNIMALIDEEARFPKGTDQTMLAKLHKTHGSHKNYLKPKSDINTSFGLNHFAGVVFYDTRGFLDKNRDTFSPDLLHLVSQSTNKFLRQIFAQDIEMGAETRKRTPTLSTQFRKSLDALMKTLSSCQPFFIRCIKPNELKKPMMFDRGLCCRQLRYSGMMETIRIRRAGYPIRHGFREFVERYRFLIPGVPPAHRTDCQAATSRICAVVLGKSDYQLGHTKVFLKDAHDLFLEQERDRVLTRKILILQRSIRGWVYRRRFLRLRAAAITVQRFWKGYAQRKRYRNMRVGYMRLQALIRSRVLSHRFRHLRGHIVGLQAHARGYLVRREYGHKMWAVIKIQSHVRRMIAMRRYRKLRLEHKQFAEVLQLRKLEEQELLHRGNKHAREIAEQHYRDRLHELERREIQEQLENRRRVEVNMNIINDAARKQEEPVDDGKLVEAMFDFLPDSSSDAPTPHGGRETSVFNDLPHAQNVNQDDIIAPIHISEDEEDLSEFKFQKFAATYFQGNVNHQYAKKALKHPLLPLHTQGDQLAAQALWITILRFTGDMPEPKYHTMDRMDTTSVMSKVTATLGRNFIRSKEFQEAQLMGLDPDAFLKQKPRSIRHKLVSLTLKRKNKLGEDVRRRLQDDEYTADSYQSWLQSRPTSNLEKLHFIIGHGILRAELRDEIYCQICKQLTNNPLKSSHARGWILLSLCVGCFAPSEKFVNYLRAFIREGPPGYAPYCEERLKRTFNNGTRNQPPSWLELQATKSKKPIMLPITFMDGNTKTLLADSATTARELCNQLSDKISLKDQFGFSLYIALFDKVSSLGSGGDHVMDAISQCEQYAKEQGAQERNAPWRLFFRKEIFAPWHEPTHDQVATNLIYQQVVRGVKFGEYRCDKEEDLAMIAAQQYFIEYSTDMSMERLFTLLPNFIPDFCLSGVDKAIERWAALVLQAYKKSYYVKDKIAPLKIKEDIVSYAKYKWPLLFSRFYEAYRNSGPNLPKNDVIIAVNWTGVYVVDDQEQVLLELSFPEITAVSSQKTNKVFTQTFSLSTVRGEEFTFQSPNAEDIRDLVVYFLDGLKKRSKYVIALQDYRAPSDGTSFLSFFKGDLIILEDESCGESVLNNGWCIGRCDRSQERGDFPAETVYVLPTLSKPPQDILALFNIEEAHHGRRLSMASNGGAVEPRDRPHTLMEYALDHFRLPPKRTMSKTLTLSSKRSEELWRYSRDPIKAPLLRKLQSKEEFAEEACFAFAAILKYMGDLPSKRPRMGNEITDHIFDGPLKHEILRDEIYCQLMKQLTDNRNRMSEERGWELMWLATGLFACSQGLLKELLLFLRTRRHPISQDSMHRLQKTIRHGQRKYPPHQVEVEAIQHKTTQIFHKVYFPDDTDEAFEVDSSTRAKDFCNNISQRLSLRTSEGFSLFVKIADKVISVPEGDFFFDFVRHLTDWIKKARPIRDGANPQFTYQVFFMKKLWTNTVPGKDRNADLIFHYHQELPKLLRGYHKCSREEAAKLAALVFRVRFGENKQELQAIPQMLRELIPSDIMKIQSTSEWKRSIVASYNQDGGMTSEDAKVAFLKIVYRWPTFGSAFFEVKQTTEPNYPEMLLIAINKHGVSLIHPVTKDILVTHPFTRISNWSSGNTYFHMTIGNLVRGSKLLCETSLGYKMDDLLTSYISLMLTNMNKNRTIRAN
HA-tagged CK 998-1,668 (Drosophila (D. melanogaster)): residues 998-1668 of Q9V3Z6
V5-SGG46 (P18431-1, form named): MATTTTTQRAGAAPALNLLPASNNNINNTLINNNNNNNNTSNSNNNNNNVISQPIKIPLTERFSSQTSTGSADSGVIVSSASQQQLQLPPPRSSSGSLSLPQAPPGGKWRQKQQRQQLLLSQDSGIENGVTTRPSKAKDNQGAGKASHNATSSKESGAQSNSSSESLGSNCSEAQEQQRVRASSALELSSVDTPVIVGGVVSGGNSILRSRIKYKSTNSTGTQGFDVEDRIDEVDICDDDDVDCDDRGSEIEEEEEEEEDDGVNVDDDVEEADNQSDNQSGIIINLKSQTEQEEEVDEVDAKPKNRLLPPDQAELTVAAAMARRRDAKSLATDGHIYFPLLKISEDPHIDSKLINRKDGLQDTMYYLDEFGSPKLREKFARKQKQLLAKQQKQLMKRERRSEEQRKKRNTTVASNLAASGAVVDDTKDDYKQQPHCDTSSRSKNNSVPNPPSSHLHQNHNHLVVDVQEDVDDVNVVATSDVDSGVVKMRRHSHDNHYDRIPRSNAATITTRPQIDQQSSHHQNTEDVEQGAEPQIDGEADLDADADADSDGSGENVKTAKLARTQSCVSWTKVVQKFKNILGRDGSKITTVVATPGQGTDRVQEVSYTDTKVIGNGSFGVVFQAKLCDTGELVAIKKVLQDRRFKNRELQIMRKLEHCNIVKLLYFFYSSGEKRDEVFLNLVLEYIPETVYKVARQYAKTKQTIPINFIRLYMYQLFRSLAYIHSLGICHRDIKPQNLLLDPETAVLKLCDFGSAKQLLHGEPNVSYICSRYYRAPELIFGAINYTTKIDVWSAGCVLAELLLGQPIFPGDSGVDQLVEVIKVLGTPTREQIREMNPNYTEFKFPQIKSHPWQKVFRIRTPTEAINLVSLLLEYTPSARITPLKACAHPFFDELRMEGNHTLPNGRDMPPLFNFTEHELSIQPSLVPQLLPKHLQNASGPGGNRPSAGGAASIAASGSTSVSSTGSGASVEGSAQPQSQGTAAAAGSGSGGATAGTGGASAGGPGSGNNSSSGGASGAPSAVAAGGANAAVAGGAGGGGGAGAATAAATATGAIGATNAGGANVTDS

How the values were obtained:
[1] = molecular target: HA-CK (Drosophila (D. melanogaster)) (UniProt Q9V3Z6); experiment: co-IP; co-expressed in Drosophila S2 cells; α-HA immunoprecipitation, immunoblotting; lysis in 50 mM Tris pH 7.5, 150 mM NaCl, 0.1% Triton X-100, 10% glycerol, 1 mM EDTA
[2] = molecular target: T1, MYC-DRONC (Drosophila) (UniProt Q9XYF4); experiment: co-IP; co-expressed in Drosophila S2 cells; α-MYC immunoprecipitation, immunoblotting; lysis in 50 mM Tris pH 7.5, 150 mM NaCl, 0.1% Triton X-100, 10% glycerol, 1 mM EDTA
T1 sequence: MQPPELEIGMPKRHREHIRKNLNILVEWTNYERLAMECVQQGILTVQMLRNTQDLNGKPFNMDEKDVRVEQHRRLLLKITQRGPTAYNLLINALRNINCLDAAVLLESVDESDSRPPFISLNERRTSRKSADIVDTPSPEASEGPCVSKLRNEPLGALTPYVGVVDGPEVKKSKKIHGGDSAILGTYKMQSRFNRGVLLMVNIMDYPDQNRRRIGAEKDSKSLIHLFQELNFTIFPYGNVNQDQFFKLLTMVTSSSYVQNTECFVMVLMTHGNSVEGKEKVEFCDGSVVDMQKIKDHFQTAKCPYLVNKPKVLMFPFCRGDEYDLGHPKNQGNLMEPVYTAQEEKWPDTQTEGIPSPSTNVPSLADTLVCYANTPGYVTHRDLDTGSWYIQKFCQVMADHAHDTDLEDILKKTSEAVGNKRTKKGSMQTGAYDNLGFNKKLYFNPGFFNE

[3] = molecular target: T2, endogenous RIPK1 (SWISS-3T3 cells) (mouse (endogenous in SWISS-3T3)) (UniProt Q60855); experiment: proximity ligation; in situ PLA (Duolink) on endogenous proteins in fixed SWISS-3T3 cells; TNF treatment, with control or MYO7A RNAi
T2 sequence: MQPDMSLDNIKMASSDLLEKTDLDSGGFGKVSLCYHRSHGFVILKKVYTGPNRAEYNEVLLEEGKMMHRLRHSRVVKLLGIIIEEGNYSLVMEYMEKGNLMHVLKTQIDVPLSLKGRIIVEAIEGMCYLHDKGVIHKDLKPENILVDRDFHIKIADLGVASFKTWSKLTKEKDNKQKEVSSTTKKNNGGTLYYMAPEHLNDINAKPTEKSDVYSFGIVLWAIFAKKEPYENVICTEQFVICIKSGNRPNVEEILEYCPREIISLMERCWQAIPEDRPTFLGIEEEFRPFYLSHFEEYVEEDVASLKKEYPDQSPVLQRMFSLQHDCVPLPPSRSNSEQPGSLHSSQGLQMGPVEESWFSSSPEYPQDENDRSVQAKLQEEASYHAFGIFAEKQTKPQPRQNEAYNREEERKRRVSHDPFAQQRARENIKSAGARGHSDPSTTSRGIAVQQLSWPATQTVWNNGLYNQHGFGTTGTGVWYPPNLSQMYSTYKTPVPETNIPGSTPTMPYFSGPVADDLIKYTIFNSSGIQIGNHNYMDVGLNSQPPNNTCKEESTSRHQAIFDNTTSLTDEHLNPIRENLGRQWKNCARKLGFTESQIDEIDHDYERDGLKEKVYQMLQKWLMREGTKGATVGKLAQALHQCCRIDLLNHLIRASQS

[4] = molecular target: HA-CK (Drosophila (D. melanogaster)) (UniProt Q9V3Z6); experiment: co-IP; co-expressed in Drosophila S2 cells; α-HA immunoprecipitation, immunoblotting; lysis in 50 mM Tris pH 7.5, 150 mM NaCl, 0.1% Triton X-100, 10% glycerol, 1 mM EDTA; remark: listed apart in the source
[5] = molecular target: HA-tagged CK 998-1,668 (Drosophila (D. melanogaster)) (UniProt Q9V3Z6); experiment: as above

V5-SGG46 (from UniProt P18431-1 1-1067) (enzyme)
binding [1]: binds

HA-CK (from UniProt Q9V3Z6 1-2167)
binding [2]: binds

B1: endogenous CASP8 (SWISS-3T3 cells) (enzyme, UniProt O89110 1-480)
chain: MDFQSCLYAIAEELGSEDLAALKFLCLDYIPHKKQETIEDAQKLFLRLREKGMLEEGNLSFLKELLFHISRWDLLVNFLDCNREEMVRELRDPDNAQISPYRVMLFKLSEEVSELELRSFKFLLNNEIPKCKLEDDLSLLEIFVEMEKRTMLAENNLETLKSICDQVNKSLLGKIEDYERSSTERRMSLEGREELPPSVLDEMSLKMAELCDSPREQDSESRTSDKVYQMKNKPRGYCLIINNHDFSKAREDITQLRKMKDRKGTDCDKEALSKTFKELHFEIVSYDDCTANEIHEILEGYQSADHKNKDCFICCILSHGDKGVVYGTDGKEASIYDLTSYFTGSKCPSLSGKPKIFFIQACQGSNFQKGVPDEAGFEQQNHTLEVDSSSHKNYIPDEADFLLGMATVKNCVSYRDPVNGTWYIQSLCQSLRERCPQGDDILSILTGVNYDVSNKDDRRNKGKQMPQPTFTLRKKLFFPP
binding [3]: binds

B2: V5-tagged full-length DRONC (enzyme, UniProt Q9XYF4 1-450)
chain: T1 sequence
binding [4]: binds
binding [5]: binds

B3: V5-DIAP1 (protein, UniProt Q24306 1-438)
chain: MASVVADLPSYGPIAFDQVDNNTNATQLFKNNINKTRMNDLNREETRLKTFTDWPLDWLDKRQLAQTGMYFTHAGDKVKCFFCGVEIGCWEQEDQPVPEHQRWSPNCPLLRRRTTNNVPINAEALDRILPPISYDICGANDSTLEMREHAYAEGVIPMSQLIQSIGMNAVNAAGSVTGTAAPQPRVTVATHASTATQATGDVQPETCRPSAASGNYFPQYPEYAIETARLRTFEAWPRNLKQKPHQLAEAGFFYTGVGDRVRCFSCGGGLMDWNDNDEPWEQHALWLSQCRFVKLMKGQLYIDTVAAKPVLAEEKEESSSIGGVAVASTQASEEEQQTSLSSEEAVSGDVAPSVAPTAATRIFNKIVEATAVATPSTNSSGSTSIPEEKLCKICYGAEYNTAFLPCGHVVACAKCASSVTKCPLCRKPFTDVMRVYFS
binding [4]: no binding

B4: V5-drICE (enzyme, UniProt O01382 1-339)
chain: MDATNNGESADQVGIRVGNPEQPNDHTDALGSVGSGGAGSSGLVAGSSHPYGSGAIGQLANGYSSPSSSYRKNVAKMVTDRHAAEYNMRHKNRGMALIFNHEHFEVPTLKSRAGTNVDCENLTRVLKQLDFEVTVYKDCRYKDILRTIEYAASQNHSDSDCILVAILSHGEMGYIYAKDTQYKLDNIWSFFTANHCPSLAGKPKLFFIQACQGDRLDGGVTMQRSQTETDGDSSMSYKIPVHADFLIAYSTVPGFYSWRNTTRGSWFMQSLCAELAANGKRLDILTLLTFVCQRVAVDFESCTPDTPEMHQQKQIPCITTMLTRILRFSDKQLAPAGRV
binding [4]: no binding
